{"source": "PubChem BioAssay AID504333", "about": "(National Center for Advancing Translational Sciences (NCATS), 2011)", "note": "In all, about 360,000 compounds went through this assay and about 16,000 (4.4%) were called active. Inconclusive means that the source gave no clear call. Such entries were picked first, then a sample of the others. The call rests on the fitted dose curve; in most records, active means well fitted inhibition curve with a large enough effect; inconclusive means small, poorly fitted or top-dose-only effect; inactive means no such curve, though single readings can be large or run the other way. Potencies of inconclusive entries are doubtful fits and often do not repeat. On the % scale 0 is the no-effect control and ±100 the full control effect; potency means the concentration at half of the fitted maximal effect; tags describe the fitted curve by direction and shape.", "data": [{"target": "Bromodomain adjacent to zinc finger domain protein 2B (Homo sapiens) (UniProt Q9UIF8)", "sequence (Q9UIF8 whole entry, looked up, the tested form may be a part)": "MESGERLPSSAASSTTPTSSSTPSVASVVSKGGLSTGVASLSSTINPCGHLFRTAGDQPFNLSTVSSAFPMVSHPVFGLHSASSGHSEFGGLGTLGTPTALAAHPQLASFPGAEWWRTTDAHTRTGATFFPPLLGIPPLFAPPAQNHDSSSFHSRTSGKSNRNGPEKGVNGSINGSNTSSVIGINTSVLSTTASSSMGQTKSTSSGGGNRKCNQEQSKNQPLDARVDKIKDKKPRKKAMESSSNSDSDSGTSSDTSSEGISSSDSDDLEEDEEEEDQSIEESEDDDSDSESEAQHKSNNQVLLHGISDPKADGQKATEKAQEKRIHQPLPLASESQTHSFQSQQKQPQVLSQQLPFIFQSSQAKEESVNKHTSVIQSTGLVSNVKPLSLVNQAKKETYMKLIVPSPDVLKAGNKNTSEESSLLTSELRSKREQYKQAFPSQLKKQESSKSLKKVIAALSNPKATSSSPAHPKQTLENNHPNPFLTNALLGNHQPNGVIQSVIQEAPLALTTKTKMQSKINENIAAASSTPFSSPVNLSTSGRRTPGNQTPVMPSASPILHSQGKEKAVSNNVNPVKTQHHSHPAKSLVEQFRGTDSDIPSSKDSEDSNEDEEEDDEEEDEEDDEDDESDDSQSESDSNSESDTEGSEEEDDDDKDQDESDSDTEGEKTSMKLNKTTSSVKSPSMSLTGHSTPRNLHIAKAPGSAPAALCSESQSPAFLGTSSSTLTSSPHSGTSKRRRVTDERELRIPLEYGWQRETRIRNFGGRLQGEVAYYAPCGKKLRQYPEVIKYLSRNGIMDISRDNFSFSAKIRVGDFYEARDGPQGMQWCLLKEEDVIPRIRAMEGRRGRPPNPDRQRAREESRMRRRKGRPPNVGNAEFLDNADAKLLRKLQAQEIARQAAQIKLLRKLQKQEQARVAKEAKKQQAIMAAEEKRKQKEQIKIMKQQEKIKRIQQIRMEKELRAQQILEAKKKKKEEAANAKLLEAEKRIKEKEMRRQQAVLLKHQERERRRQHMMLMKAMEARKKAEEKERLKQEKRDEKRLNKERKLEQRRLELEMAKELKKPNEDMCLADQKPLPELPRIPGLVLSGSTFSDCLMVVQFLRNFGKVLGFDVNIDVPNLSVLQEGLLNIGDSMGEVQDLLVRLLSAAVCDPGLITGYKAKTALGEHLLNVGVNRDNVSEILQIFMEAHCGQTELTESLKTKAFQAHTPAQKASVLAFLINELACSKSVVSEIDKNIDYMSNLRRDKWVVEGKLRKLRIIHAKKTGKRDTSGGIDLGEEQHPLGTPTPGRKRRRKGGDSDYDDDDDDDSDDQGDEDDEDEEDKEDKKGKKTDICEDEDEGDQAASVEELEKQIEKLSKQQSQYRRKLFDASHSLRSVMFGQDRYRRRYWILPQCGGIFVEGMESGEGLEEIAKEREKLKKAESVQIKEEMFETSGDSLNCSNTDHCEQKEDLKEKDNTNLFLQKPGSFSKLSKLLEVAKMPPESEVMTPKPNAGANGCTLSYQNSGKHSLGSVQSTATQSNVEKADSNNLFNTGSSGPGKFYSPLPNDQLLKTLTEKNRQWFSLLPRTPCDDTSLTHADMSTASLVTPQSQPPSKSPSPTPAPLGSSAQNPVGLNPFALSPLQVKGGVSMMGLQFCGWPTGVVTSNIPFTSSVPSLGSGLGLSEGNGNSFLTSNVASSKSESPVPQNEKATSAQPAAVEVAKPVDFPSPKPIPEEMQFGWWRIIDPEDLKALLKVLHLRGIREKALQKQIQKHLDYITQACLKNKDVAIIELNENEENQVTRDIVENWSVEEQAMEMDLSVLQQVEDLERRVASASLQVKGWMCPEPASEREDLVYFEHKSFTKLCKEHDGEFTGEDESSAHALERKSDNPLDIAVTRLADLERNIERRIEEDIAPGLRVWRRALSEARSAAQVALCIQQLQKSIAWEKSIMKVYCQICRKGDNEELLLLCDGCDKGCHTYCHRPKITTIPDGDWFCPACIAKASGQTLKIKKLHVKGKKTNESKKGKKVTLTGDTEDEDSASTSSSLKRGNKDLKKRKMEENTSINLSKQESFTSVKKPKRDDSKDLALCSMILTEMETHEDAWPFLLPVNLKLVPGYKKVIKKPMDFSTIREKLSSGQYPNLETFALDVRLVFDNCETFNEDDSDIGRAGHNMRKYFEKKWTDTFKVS", "assay": "qHTS Assay for Inhibitors of BAZ2B; further: nearly all actives have a fitted effect of over 60% in size", "settings": "AlphaScreen BAZ2B-H3K14Ac peptide displacement; activity change, negative = inhibition: at 114 µM (top of the series) unless noted", "how_it_was_run": "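Inhibition is scored as reduced AlphaScreen emission. The BAZ2B/b-H3(5-23)K14Ac complex (50 nM each) in PBS pH 7.4, 0.01% Tween-20 meets compound (up to 110 uM) for 30 min at RT before bead addition.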", "values": [{"smiles": "NS(=O)(=O)c1cccc(NS(=O)(=O)c2ccc(/C=C/C(=O)OCC(=O)c3ccccc3)cc2)c1", "Potency": "inconclusive: 79.4 µM [inhibitor, partial curve]"}, {"smiles": "COc1ccc(NC(=O)CN2C(=O)CCc3cc(S(=O)(=O)N4CCOCC4)ccc32)c(OC)c1", "Potency": "inconclusive: 89.1 µM [inhibitor, single point]"}, {"smiles": "Oc1ccccc1CN1CCN(C(O)(c2ccccc2)c2ccccc2)CC1", "Potency": "active: 50.1 µM"}, {"smiles": "Cn1cc(C(=O)c2cccc(Cl)c2)cc1/C=N\\O", "Potency": "inconclusive: 50.1 µM [inhibitor, partial curve]"}, {"smiles": "CC(=O)CN1C(=O)NC(c2ccccc2)(c2ccccc2)C1=O", "Potency": "inconclusive: 79.4 µM [inhibitor, single point]"}, {"smiles": "C/C(=N\\NC(=O)CSc1nnc(C)s1)c1ccc(O)cc1", "Potency": "inconclusive: 100 µM [inhibitor, single point]"}, {"smiles": "Cc1ccc(N(C)S(=O)(=O)c2c[nH]c3ccc([N+](=O)[O-])cc23)cc1", "Potency": "inconclusive: 39.8 µM [inhibitor, partial curve]"}, {"smiles": "COC(=O)C1=C(C)N(Cc2ccc(OC)cc2)C(=O)/C1=C\\c1ccco1", "Potency": "active: 12.6 µM"}, {"smiles": "CN(C)CCNc1ncnc2ccccc12", "Potency": "inconclusive: 89.1 µM [inhibitor, single point]"}, {"smiles": "CC(C)(Sc1ccc(CCN(CCCCC2CCCCC2)C(=O)NC2CCCCC2)cc1)C(=O)O", "Potency": "active: 79.4 µM"}, {"smiles": "CCOC(=O)c1c(N)sc2c1CCC(C)C2", "note": "(configuration not stated)", "Potency": "inconclusive: 50.1 µM [inhibitor, partial curve]"}, {"smiles": "COc1ccc(Br)cc1C(=O)Nc1ccc(N2CCCC2)cc1", "Potency": "active: 22.4 µM"}, {"smiles": "Clc1ccc(C2=Nn3c(nnc3-c3cccs3)SC2)cc1", "activity change, negative = inhibition": "inactive: -16.6%"}, {"smiles": "CCOC(=O)N1CCN(C(=O)c2c(O)c3cccc4c3n(c2=O)CC4)CC1", "Potency": "inconclusive: 89.1 µM [inhibitor, single point]"}, {"smiles": "O=S(=O)(c1ccc(Br)cc1)c1nc(-c2ccccc2)oc1NCCN1CCOCC1", "Potency": "inconclusive: 50.1 µM [inhibitor, partial curve]"}, {"smiles": "Cc1c(N=NC2=C(O)CC(C)(C)CC2=O)cc2c(c1[N+](=O)[O-])C(C)(C)CC2(C)C", "Potency": "inconclusive: 2.51 µM [inhibitor, full curve, poor fit]"}, {"smiles": "CCC(CC)C(=O)Oc1c(Sc2ccccc2[N+](=O)[O-])c(C)nn1C(C)(C)C", "Potency": "inconclusive: 79.4 µM [inhibitor, single point]"}, {"smiles": "CS(=O)(=O)NCCCNc1ccc(Cl)cc1[N+](=O)[O-]", "Potency": "inconclusive: 50.1 µM [inhibitor, partial curve]"}, {"smiles": "COc1ccc(N(C)S(=O)(=O)c2cccc(C(=O)Nc3ccc(N4CCOCC4)cc3)c2)cc1", "Potency": "inconclusive: 79.4 µM [inhibitor, single point]"}, {"smiles": "Oc1ccc(N=Nc2ccc(Br)cc2)c(O)c1", "Potency": "active: 25.1 µM"}, {"smiles": "CCn1c(CNC(=O)c2cccc(C)c2)nnc1SCC(=O)N1CCOCC1", "Potency": "inconclusive: 79.4 µM [inhibitor, single point]"}, {"smiles": "CCCCC[C@H]1CN(CCCC)C(=O)[C@@H]1CC(=O)NCc1ccc(OC)cc1", "activity change, negative = inhibition": "inactive: 2.4%"}, {"smiles": "CC(C)CNCC(=O)N1c2ccccc2Sc2ccccc21", "Potency": "inconclusive: 89.1 µM [inhibitor, single point]"}, {"smiles": "CSc1ccc2c(c1)N(CCC1CCCCN1C)c1ccccc1S2", "note": "(configuration not stated)", "Potency": "active: 31.6 µM"}, {"smiles": "COc1ccc(-n2nc(C#N)c(Cl)cc2=O)cc1", "activity change, negative = inhibition": "inactive: -3.13%"}, {"smiles": "CCOC(=O)CSC1=C(C#N)C(c2ccc(C)cc2)C2=C(CCCC2=O)N1", "note": "(configuration not stated)", "activity change, negative = inhibition": "inactive: 6.38%"}, {"smiles": "Cn1c(SCc2cccnc2)nc2c(c1=O)SCC2", "Potency": "inconclusive: 79.4 µM [inhibitor, single point]"}, {"smiles": "O=C1Cc2ccccc2Sc2cc(OCCCN3CCCCC3)ccc21", "activity change, negative = inhibition": "inactive: -8.85%"}, {"smiles": "CCOc1ccc(C(=S)N2CCN(C)CC2)cc1", "activity change, negative = inhibition": "inactive: -18.5%"}, {"smiles": "COCC(C)n1c(C)cc(C(=O)CSc2ncccn2)c1C", "note": "(configuration not stated)", "Potency": "inconclusive: 70.8 µM [inhibitor, single point]"}, {"smiles": "COc1ccccc1CNC(=O)c1cn(C)c(=O)c2cc(OC)c(OC)cc12", "activity change, negative = inhibition": "inactive: -11.7%"}, {"smiles": "CCCCCn1c(=O)[nH]c2cc(C(=O)NCCN(CC)CC)ccc2c1=O", "activity change, negative = inhibition": "inactive: 7.53%"}, {"smiles": "CCN(C(=O)CSc1nc2ccccc2n1CC(=O)N(C)C1CCCCC1)c1ccccc1", "activity change, negative = inhibition": "inactive: -23.1%"}, {"smiles": "CCOC(=O)c1cc(-c2ccccc2)n(CCC(=O)NCCc2ccccc2)c1C", "Potency": "inconclusive: 39.8 µM [inhibitor, full curve, poor fit]"}, {"smiles": "COc1ccc(SCc2noc(C(=O)NC(C)C)c2C(=O)O)cc1", "Potency": "inconclusive: 100 µM [inhibitor, single point]"}, {"smiles": "O=C(CSc1nc2ccccc2s1)Nc1cc(S(=O)(=O)N2CCOCC2)ccc1Cl", "Potency": "inconclusive: 89.1 µM [inhibitor, single point]"}, {"smiles": "COc1ccc(-c2nc3sc(CCNC(=O)Cc4ccccc4)c(C)n3n2)cc1", "activity change, negative = inhibition": "inactive: 0.0772%"}]}]}
